Test results from PubChem BioAssay AID504466 (National Center for Advancing Translational Sciences (NCATS), 2011).
Out of some 330,000 compounds screened, about 4,200 (1.3%) were called active. This list was built around the results that the source calls inconclusive (neither active nor inactive); the mix of calls is not that of the screen. Calls follow the shape of the dose curve; as a rule, active = well fitted activation curve with a large enough effect; inconclusive = small, poorly fitted or top-dose-only effect; inactive = no such curve, though single readings can be large or run the other way. Potencies beside an inconclusive call are fits to weak or partial responses and may not hold up.
Potency is read from the fitted curve at half-maximal effect; tags tell the direction and shape of the fitted curve.

Assay: qHTS screen for small molecules that induce genotoxicity in human embryonic kidney (HEK293T) cells expressing luciferase-tagged ELG1; also: nearly all actives have a fitted effect of over 60% in size
Conditions: HEK293T ELG1-luciferase reporter, luminescence, 16 h; series mostly up to 46 µM
Summary of the method: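 HEK293T cells expressing luciferase-tagged ELG1 were treated with compound or DMSO for 16 hr at 37°C. Luciferase activity was then read after 30 min with ONE-Glo at room temperature; rising signal flags genetic stress.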
With `Nc1c(Br)cc2oc(-c3ccccc3)nc2c1Br` the Potency was inconclusive: 10.3 µM [activator, partial curve]. In the case of `CCN(CC(=O)NCc1ccc(F)cc1)C(=O)/C=C/c1ccc(OC)c(S(=O)(=O)NC(C)C)c1`, the Potency is reported as inconclusive: 8.2 µM [activator, partial curve, poor fit]. For `CC1(C)NC(=O)N(CCCCOc2ccc3ccccc3c2Cl)C1=O`, the Potency was inconclusive: 5.17 µM [activator, partial curve]. For `O=C(NCc1ccco1)c1ccc2c(c1)OCCO2`, the Potency was inconclusive: 20.6 µM [activator, partial curve, poor fit]. In the case of `CC(=O)NC(Cc1cc(C)ccc1C)C(=O)N1CCN(C(=O)Nc2ccc(C(C)=O)cc2)CC1` (configuration not stated), the Potency is reported as inconclusive: 11.2 µM [activator, partial curve, poor fit]. For `CC(=O)N1N=C2/C(=C/c3ccccc3)CCCC2C1c1ccccc1` (configuration not stated), the Potency was inconclusive: 23.1 µM [activator, partial curve, poor fit]. With `Cc1ccc2nc(-c3cccnc3)c(Nc3ccccc3C)n2c1` the Potency was “inactive”. For `Cc1nc(-c2ccccn2)sc1C(=O)Nc1ccc(F)cc1F`, the Potency was inconclusive: 16.4 µM [activator, partial curve, poor fit]. For `O=C(c1nc2ccccc2s1)N1CCN(c2ccccn2)CC1`, the Potency was inconclusive: 20.6 µM [activator, partial curve]. In the case of `O=C(COC(=O)C1(c2ccccc2F)CCCC1)NCc1cccs1`, the Potency is reported as “inactive”. For `COc1cc2c(cc1OC)-c1cc(NC3CCCC3)nc(=O)n1CC2`, the Potency was inconclusive: 5.8 µM [activator, single point]. With `Nc1ccccc1C(=O)Nc1nccs1` the Potency was inconclusive: 20.6 µM [activator, partial curve, poor fit]. In the case of `Cc1ccc(NC(=O)C(=O)Nc2ccc(C)cn2)nc1`, the Potency is reported as inconclusive: 3.26 µM [activator, single point]. In the case of `COc1ccc(NC(=O)c2ccc3c(c2)OCCO3)cc1OC`, the Potency is reported as active: 5.62 µM. With `COCC(C)NC(=O)c1cc(-c2cccc(OC)c2)on1` (configuration not stated) the Potency was inconclusive: 18.4 µM [activator, partial curve, poor fit]. In the case of `CCc1cccc(CC)c1NC(=S)N(CCN(C)C)C(C)c1cccnc1` (configuration not stated), the Potency is reported as “inactive”. For `Cc1ccn2c(=O)nc(SCC(=O)N3CCCCC3)nc2c1`, the Potency was “inactive”. With `COc1ccc(-c2csc(NCc3ccco3)n2)cc1` the Potency was inconclusive: 1.84 µM [activator, partial curve]. With `Cc1cnn(C(=S)NCc2ccc(Cl)cc2)c1` the Potency was “inactive”. For `O=C(CSc1nnc2ccccn12)Nc1ccc2c(c1)OCCO2`, the Potency was inconclusive: 18.3 µM [activator, partial curve]. With `O=S(=O)(Cc1nc2ccccc2s1)c1ccccc1` the Potency was active: 4.61 µM. For `COCCNc1nc(-c2cc3ccccc3o2)cs1`, the Potency was inconclusive: 2.31 µM [activator, full curve]. In the case of `N/C(=N\OC(=O)/C=C/c1ccccc1)c1cccnc1`, the Potency is reported as inconclusive: 20.6 µM [activator, partial curve]. For `CC1CCc2c(sc(NC(=O)c3ccccc3C(=O)O)c2C#N)C1` (configuration not stated), the Potency was inconclusive: 23.1 µM [activator, partial curve, poor fit]. For `CCCCN=C1NN=C(c2cccc([N+](=O)[O-])c2)CS1`, the Potency was inconclusive: 13 µM [activator, partial curve, poor fit]. For `Cn1c(-c2ccc(F)cc2)cc2onc(-c3ccccc3Cl)c2c1=O`, the Potency was inconclusive: 2.31 µM [activator, partial curve]. For `CCOC(=O)c1cc2c(s1)-c1ccccc1CC2`, the Potency was “inactive”. With `Cc1ccc(S(=O)(=O)Nc2cccc(-c3ccc(N4CCCCCC4)nn3)c2)cc1` the Potency was inconclusive: 7.3 µM [activator, partial curve]. With `Cc1ccc(-c2nnn(CC(=O)N3CCC(C)CC3)n2)o1` the Potency was inconclusive: 25.9 µM [activator, partial curve, poor fit]. For `O=C(NC1=NCCS1)C1Cc2ccccc2CN1C(=O)c1ccccc1` (configuration not stated), the Potency was inconclusive: 16.4 µM [activator, partial curve, poor fit]. With `CCc1nnc2c(N(C)S(=O)(=O)c3ccc(C)cc3)nc3ccccc3n12` the Potency was inconclusive: 32.6 µM [activator, partial curve, poor fit]. With `CCN(CC(=O)Nc1ccc2c(c1)OCCO2)C(=O)/C=C/c1cccc(Br)c1` the Potency was inconclusive: 11.6 µM [activator, single point]. With `O=C(O)c1ccc(N/N=C/C2=Cc3ccccc3OC2)cc1` the Potency was inconclusive: 23.1 µM [activator, single point]. In the case of `O=C(NCCSc1ccccc1)c1ccco1`, the Potency is reported as inconclusive: 9.2 µM [activator, single point]. With `COC(=O)c1nc(N)sc1-c1ccccc1` the Potency was inconclusive: 23.1 µM [activator, single point]. In the case of `COc1cc2c(cc1OC)C(C(=O)Nc1ccc3c(c1)OCCO3)C(c1cccnc1)N(C)C2=O` (configuration not stated), the Potency is reported as inconclusive: 29.1 µM [activator, partial curve, poor fit]. For `COc1ccc(Cn2c(=O)n(Cc3ccco3)c(=N)c3c4c(sc32)COC(C)(C)C4)cc1`, the Potency was “inactive”. For `COc1ccccc1N1CCN(C(=O)c2cc(-c3ccccc3O)on2)CC1`, the Potency was “inactive”. With `CC(C)CCn1c(SCCc2ccccc2)nc2c1c(=O)[nH]c(=O)n2C` the Potency was “inactive”. With `Cc1cc(/C=N/Nc2ncnc(N)c2[N+](=O)[O-])c(C)n1-c1ccccc1` the Potency was inconclusive: 0.058 µM [activator, full curve, poor fit]. With `Cc1nc2ccccc2c2nc3ccccc3n12` the Potency was inconclusive: 20.6 µM [activator, single point]. For `COc1ccc(-c2nc(-c3ccncc3)no2)cc1`, the Potency was inconclusive: 10.3 µM [activator, partial curve]. With `C/C(=N\NC(=O)c1cc(-c2ccncc2)nc2ccccc12)c1ccc(N2CCOCC2)cc1` the Potency was inconclusive: 25.1 µM [activator, partial curve, poor fit]. With `CC1(C)Cc2ccccc2C(NNC(=O)c2ccccn2)=N1` the Potency was inconclusive: 29.1 µM [activator, single point]. In the case of `CCOC(=O)C1CCCN(CCC(=O)Nc2cccc(C)c2)C1` (configuration not stated), the Potency is reported as inconclusive: 9.2 µM [activator, partial curve]. For `O=C(N/C(=C/c1ccccc1)C(=O)N1CCCCC1)c1ccccc1`, the Potency was active: 18.3 µM. In the case of `N/C(=N\OC(=O)CCCc1ccccc1)c1ccccc1`, the Potency is reported as inconclusive: 23.1 µM [activator, single point]. With `CC(C)CCN1C(N(C)C)=NC[C@@H]1C` the Potency was “inactive”. For `Cc1occc1-c1nnc(SCC(=O)Nc2nc(C(C)(C)C)cs2)o1`, the Potency was inconclusive: 23.1 µM [activator, single point]. With `CCn1c(CCNC(=O)c2ccc(OC)cc2)nnc1SCc1ccc(Cl)cc1Cl` the Potency was “inactive”. For `c1ccc(-c2csc(Nc3cccnc3)n2)nc1`, the Potency was inconclusive: 8.2 µM [activator, partial curve]. For `O=C1c2ccccc2NC(c2ccco2)N1/N=C/c1ccco1` (configuration not stated), the Potency was “inactive”. With `O=[N+]([O-])c1ccccc1/C=N/NC1=NCCCCC1` the Potency was inconclusive: 13 µM [activator, partial curve, poor fit]. For `CNC(=O)COc1ccc2oc3c(c2c1)CCCC3`, the Potency was inconclusive: 23.1 µM [activator, single point]. For `COc1ccc(-c2cc3ncc(-c4ccccc4)c(N)n3n2)cc1`, the Potency was inconclusive: 2.31 µM [activator, partial curve]. For `Cc1ccc(/C=C/C(=O)N2CCc3ccccc3C2)cc1`, the Potency was inconclusive: 14.1 µM [activator, single point]. For `CCCCCCSc1nsc(NC(C)=O)n1`, the Potency was inconclusive: 8.2 µM [activator, partial curve, poor fit]. For `CCc1ccc(-c2cc(C(=O)N3N=C(C(F)F)CC3(O)C(F)F)c3ccccc3n2)cc1` (configuration not stated), the Potency was “inactive”. For `Cc1ccc(C(=O)OCc2cn3ccccc3n2)cc1`, the Potency was inconclusive: 11.2 µM [activator, partial curve, poor fit]. For `COc1ccc(/C=N/NC(=O)c2ccccc2NC(=O)c2ccco2)c(OC)c1`, the Potency was “inactive”. With `Cc1ccc(Cl)cc1N1CCN(C(=O)c2ccccc2SCC(=O)N2CCCC2)CC1` the Potency was “inactive”. In the case of `CC(C)c1ccc(NC(=O)CSC(C)c2nc3ccccc3c(=O)[nH]2)cc1` (configuration not stated), the Potency is reported as “inactive”. For `N#C/C(=C\c1ccc(Sc2ccccc2)o1)c1nc2ccccc2[nH]1`, the Potency was inconclusive: 11.6 µM [activator, partial curve]. In the case of `COc1ccccc1C(c1nnnn1Cc1ccco1)N1CCN(c2cccc(C)c2C)CC1` (configuration not stated), the Potency is reported as “inactive”. With `Cn1cc(SCC(=O)Nc2ccc3c(c2)OCCO3)c2ccccc21` the Potency was inconclusive: 20.6 µM [activator, partial curve]. With `C=CCSc1nn2c(=O)c3ccccc3nc2s1` the Potency was inconclusive: 7.31 µM [activator, partial curve, poor fit]. In the case of `COc1ccc(NC(=O)/C=C/c2ccccc2)cn1`, the Potency is reported as inconclusive: 10.3 µM [activator, partial curve]. For `Cc1csc(NC(=O)C2CCCO2)n1` (configuration not stated), the Potency was “inactive”. With `Cc1ccc(-c2nnc3sc(CCc4ccccc4)nn23)cc1` the Potency was inconclusive: 25.9 µM [activator, single point]. For `CCn1ncc(/C=C/C(=O)c2ccccc2)c1C`, the Potency was inconclusive: 5.8 µM [activator, full curve, poor fit]. With `O=C(c1ccccc1)N1CCC(=O)N1c1ccccc1` the Potency was “inactive”. With `COc1ccc(/C=N/N2CCN(c3ccccc3OC)CC2)cc1OC` the Potency was inconclusive: 32.6 µM [activator, partial curve, poor fit].
